According to the BET-seq Pho4 binding data (Le et al. 2018):
The other results are listed elsewhere or left out. The energies were worked out here from pooled read counts, against the library average; single values are noisy.

Molecular target: T1, Pho4 (S. cerevisiae) (UniProt P07270)
T1 sequence: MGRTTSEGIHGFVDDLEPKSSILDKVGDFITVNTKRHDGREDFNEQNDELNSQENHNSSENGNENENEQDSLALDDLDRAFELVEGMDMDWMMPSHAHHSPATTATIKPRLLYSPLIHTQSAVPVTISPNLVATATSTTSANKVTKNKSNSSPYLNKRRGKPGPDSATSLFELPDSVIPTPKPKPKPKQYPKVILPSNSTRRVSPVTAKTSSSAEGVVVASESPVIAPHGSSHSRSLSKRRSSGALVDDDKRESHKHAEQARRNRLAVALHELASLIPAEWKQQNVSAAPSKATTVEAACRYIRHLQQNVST
Test: relative binding free energy (BET-seq); higher = weaker binding
Settings: reference: library average

Relative binding free energy, -0.14 kcal/mol:
TAATCCACGTGGGTGG
ATAAGCACGTGCAGGT

Relative binding free energy, 0.34 kcal/mol:
TTGGTCACGTGATGGT

Relative binding free energy, 0.37 kcal/mol:
TTATTCACGTGAGGAA

Relative binding free energy, 0.22 kcal/mol:
AATTGCACGTGACGGG
TTGTCCACGTGTAAGG
GATTACACGTGGAATG

Relative binding free energy, 0.11 kcal/mol:
GGGCGCACGTGGATTT
GGTGTCACGTGCTGTA
AGAGTCACGTGCGCGT
AGGCCCACGTGAGGGG
GGAAGCACGTGAAAGG

Relative binding free energy, 0.35 kcal/mol:
GGTAACACGTGAATTT
CGTATCACGTGAAGTT

Relative binding free energy, 0.05 kcal/mol:
TGAGGCACGTGAAGGC
TTAGACACGTGTGGTA

Relative binding free energy, 0.17 kcal/mol:
AGTTTCACGTGGGCGT
GGTTACACGTGTGAAA
ACGGGCACGTGAGCTG
GCCTTCACGTGGGTGT
AGTGTCACGTGATTTC
TGAGTCACGTGGTATA
AATTACACGTGTCGGG

Relative binding free energy, 0.08 kcal/mol:
CCTGTCACGTGTGTTG

Relative binding free energy, 0.24 kcal/mol:
TCTGTCACGTGAGAGT
CGTTTCACGTGTGTAT
GGTTTCACGTGCGTTA
GGAATCACGTGTCGTA
AGTTACACGTGTACGT

Relative binding free energy, 0.4 kcal/mol:
CGGTTCACGTGAGTAA

Relative binding free energy, -0.02 kcal/mol:
GTATGCACGTGGGGAC
CTGTCCACGTGTGGGT
AAGGGCACGTGATATT
GTTGCCACGTGTCTGG

Relative binding free energy, 0.03 kcal/mol:
GATGGCACGTGTTTTC
GGATGCACGTGTATGG
GGAATCACGTGGTCGT
GTTCACACGTGGGCAT

Relative binding free energy, 0.2 kcal/mol:
TTCAACACGTGATGTG
TTTTACACGTGTGGAA
TATGTCACGTGATTTC

Relative binding free energy, -0.06 kcal/mol:
AGTGGCACGTGTGGAC
GTTGCCACGTGTGTGA
ACGCGCACGTGGGAGG
GTCAGCACGTGTGAGG
TCAGGCACGTGTTGGG
CGTTGCACGTGGTTTA
GTAGGCACGTGCGGGT

Relative binding free energy, 0.27 kcal/mol:
AGACTCACGTGGGTAG

Relative binding free energy, 0.09 kcal/mol:
GCGGTCACGTGGCTGG
GTATACACGTGTTGAG
TGTGACACGTGATGGT
TTTTGCACGTGACCGT

Relative binding free energy, 0 kcal/mol:
TACTTCACGTGTAGTG
ATTAACACGTGGTGAG
GTGTACACGTGGACTG

Relative binding free energy, 0.29 kcal/mol:
TCGGTCACGTGTTCTT
GTTTGCACGTGAGTGA
ATGGACACGTGAGGAG
GCTTTCACGTGTGCGT

Relative binding free energy, 0.15 kcal/mol:
TCATGCACGTGAGGGG

Relative binding free energy, 0.65 kcal/mol:
GAATTCACGTGTGACT

Relative binding free energy, 0.13 kcal/mol:
AGGGTCACGTGCGGCC
AAATTCACGTGGGGTC
TCTTGCACGTGTGGAA

Relative binding free energy, 0.01 kcal/mol:
TACTGCACGTGTTGGG
CGGGTCACGTGGTGAT
ACGTGCACGTGGTTAT
TAAAACACGTGTGTAT
GCAGGCACGTGTTGAT
AATGGCACGTGATTTA
TATCGCACGTGTTATT
CTTATCACGTGGGTGA

Relative binding free energy, 0.26 kcal/mol:
CTGTTCACGTGTAGGG

Relative binding free energy, 0.12 kcal/mol:
GTGATCACGTGGATGG
TAGGACACGTGTAAGT
GGGGTCACGTGTCTGA
TTTGTCACGTGTTAGG
TGTTTCACGTGGATAT
GTGGACACGTGTTGCT
ATGTACACGTGGAAGT

Relative binding free energy, -0.15 kcal/mol:
ACGGGCACGTGGGAGA
TGCGGCACGTGGGCCG
CAAAGCACGTGGGCGG

Relative binding free energy, -0.17 kcal/mol:
GTTAGCACGTGGTCTA

Relative binding free energy, 0.21 kcal/mol:
CGCTTCACGTGTGGCG
AGTATCACGTGAGTAT
TAGCTCACGTGGGGGA
AATGTCACGTGTGCTG
GCTTTCACGTGTCGGT
AGTCGCACGTGTTGGC
AGTCTCACGTGGTTAA
GGGCGCACGTGAGTTT

Relative binding free energy, -0.08 kcal/mol:
TTAATCACGTGGGCTT
TTGTGCACGTGCGTCT
CGGTGCACGTGGGAGG
TGTGGCACGTGTGGTA
TTATGCACGTGCATTG

Relative binding free energy, -0.29 kcal/mol:
AGTCCCACGTGGGTGG

Relative binding free energy, 0.36 kcal/mol:
CTGGTCACGTGAGTTT
GTTTACACGTGATGGA

Relative binding free energy, -0.11 kcal/mol:
ACGAGCACGTGGGGGA
AGCGGCACGTGGTCTT

Relative binding free energy, 0.06 kcal/mol:
TGTTACACGTGGATTG
TTGGCCACGTGTTAGT
AACGGCACGTGTGGAG
GTATTCACGTGGGTTC
TTTTGCACGTGCGGAC
ACTAGCACGTGTGTAG
TGGGTCACGTGTTGAC
GTAATCACGTGGTGCT

Relative binding free energy, 0.14 kcal/mol:
TAAGTCACGTGCGGCG
ATGTACACGTGAGCGT
AAGATCACGTGATTGT
CAAGTCACGTGTGATG
TTGATCACGTGCAAGG
GTTGTCACGTGACTTG

Relative binding free energy, -0.27 kcal/mol:
AGCTGCACGTGGGGTG
TGAGCCACGTGGGTGC

Relative binding free energy, 0.23 kcal/mol:
GGTCGCACGTGAGGTG
TATTTCACGTGATATA

Relative binding free energy, -0.23 kcal/mol:
CGCGGCACGTGCGTGG

Relative binding free energy, 0.39 kcal/mol:
CGATTCACGTGGTTCG

Relative binding free energy, -0.07 kcal/mol:
ACAAGCACGTGTTTGG
TTTGGCACGTGCTGGT
GGGGGCACGTGCGTTT
CGGAACACGTGGTTTG

Relative binding free energy, -0.12 kcal/mol:
TATGCCACGTGGTAAT
GTGGGCACGTGTGCCT
GGTAGCACGTGCGTGG
GTGAACACGTGGGGAA
TTACGCACGTGGAGGA
GGGTGCACGTGGGCTC

Relative binding free energy, 0.33 kcal/mol:
GAGTTCACGTGTAATT
TTCCTCACGTGTTTAG
TGCGTCACGTGAATGA

Relative binding free energy, 0.1 kcal/mol:
ATGATCACGTGTGTCT
CTCGTCACGTGGAGGT

Relative binding free energy, 0.28 kcal/mol:
TTCTTCACGTGATAGA
TCGTTCACGTGGTTCT
GTATTCACGTGGGAAT
TGGCACACGTGAGGTT
GTGATCACGTGAGATG

Relative binding free energy, 0.32 kcal/mol:
GATTGCACGTGATGAT
CGATTCACGTGTTGGA

Relative binding free energy, 0.16 kcal/mol:
TTCGGCACGTGAAGTT
TTTCGCACGTGTGAGT

Relative binding free energy, -0.2 kcal/mol:
TTGGCCACGTGGCTGT
GGGCGCACGTGGTATA
CGAGGCACGTGGTGTG

Relative binding free energy, -0.13 kcal/mol:
TTGGGCACGTGCATTA
TTTGGCACGTGGGTCG
TGACACACGTGGTGGG
GGTAACACGTGGGTAA

Relative binding free energy, 0.25 kcal/mol:
ATGCTCACGTGTGGGC
AGAATCACGTGTGGAG
TTGTTCACGTGCTAAT
TTCTTCACGTGGTTAG

Relative binding free energy, 0.04 kcal/mol:
TTGCACACGTGCGTTT
TATGTCACGTGTTGAT
GTTTACACGTGGTTTG
TTATGCACGTGGATGC
CTGTGCACGTGTGGTG
GATGACACGTGTGGTG

Relative binding free energy, -0.03 kcal/mol:
CTTTGCACGTGTTATA
ACTTACACGTGGGGTA
AGGTACACGTGGTTCT
ATGGTCACGTGGTTTG
GGTGGCACGTGTGCCT

Relative binding free energy, 0.07 kcal/mol:
CTGAGCACGTGGAAGG
GTGTCCACGTGTTTGT
AGTCACACGTGGTGTA
TTTCGCACGTGTAGAG
ATTTGCACGTGTCTCG

Relative binding free energy, 0.31 kcal/mol:
TGTTTCACGTGTCGTC
GTTCTCACGTGGATAT
GGATTCACGTGACTGT
GGGTTCACGTGGTGGG
TTGTTCACGTGGTAAC

Relative binding free energy, -0.18 kcal/mol:
GGGACCACGTGCTGGG
CAGGCCACGTGGAGGG

Relative binding free energy, 0.46 kcal/mol:
GTACTCACGTGAGGAG

Relative binding free energy, 0.02 kcal/mol:
TGGACCACGTGTGCGG
TGGGACACGTGGTGGT
GTGTACACGTGGTCAA
GTTGGCACGTGACTAT
AGGAGCACGTGCGGTT
TGGCACACGTGTGTGA
AGTATCACGTGGCTGA

Relative binding free energy, 0.19 kcal/mol:
TGTCTCACGTGGTTTA

Relative binding free energy, -0.16 kcal/mol:
AAAGGCACGTGCGGGG
AGGTGCACGTGGCACG
TGATGCACGTGGGTGT

Relative binding free energy, -0.05 kcal/mol:
CATGGCACGTGGATTT
TTGCACACGTGGGTAG

Relative binding free energy, 0.18 kcal/mol:
AGTGACACGTGACTTG
GCGGACACGTGTGATG
TTTGGCACGTGAAATC
TAGTTCACGTGACGTG
GTGTGCACGTGTAATT

Relative binding free energy, -0.19 kcal/mol:
TTTGGCACGTGGGCGG
TGTGGCACGTGCGTCA
CGGCGCACGTGCGGTG
TCACGCACGTGGTGTG

Relative binding free energy, -0.04 kcal/mol:
CTGTGCACGTGAGGCG
GGGAGCACGTGCATGA
AGGTACACGTGGCGAG

Relative binding free energy, 0.41 kcal/mol:
TAATTCACGTGGTTGT

Relative binding free energy, -0.09 kcal/mol:
TTTAGCACGTGGTGCG
CGGTGCACGTGCCTGG
GTATGCACGTGGGGGC
AGGGCCACGTGGAAGT
TATGCCACGTGTGGGG
TAAAGCACGTGGTTAG

Relative binding free energy, -0.35 kcal/mol:
CCGGGCACGTGGGCGT

Relative binding free energy, -0.1 kcal/mol:
AGTTGCACGTGCGCGT
ATAGCCACGTGTGGGA
TCTTGCACGTGGCTGG
TCTGACACGTGGTGTG
TTAGCCACGTGTGAGT
AGGAACACGTGGGCTG

Relative binding free energy, -0.01 kcal/mol:
TATGTCACGTGCCTGG
AAAATCACGTGGAGGG
CGGAGCACGTGTAGGC
TTATGCACGTGGAGAT
TGCCTCACGTGGGAGG
AGGGCCACGTGTTCGG
ATGGCCACGTGTTGCT
TAGAGCACGTGATTTG
TGATGCACGTGGATTG
